From PubChem BioAssay AID1030 (National Center for Advancing Translational Sciences (NCATS), 2008)
The whole screen tested about 220,000 compounds, of which about 16,000 (7.3%) were called active. The inconclusive results got no clear call from the source; some entries with a clear call stand among them for comparison. Calls follow the shape of the dose curve; as a rule, active = well fitted inhibition curve with a large enough effect (not every such curve was filed as active); inconclusive = small, poorly fitted or top-dose-only effect, or another doubt; inactive = no such curve, though single readings can be large or run the other way. Potencies of inconclusive entries are left out as doubtful fits.

These molecules were tested against Aldehyde dehydrogenase 1A1 (Homo sapiens) (UniProt P00352) (assay: qHTS Assay for Inhibitors of Aldehyde Dehydrogenase 1 (ALDH1A1)). Conditions: Purified ALDH1A1, NADH fluorescence, propionaldehyde substrate; series mostly up to 75.3 µM.
Chain of UniProt P00352 (P00352 whole entry, looked up): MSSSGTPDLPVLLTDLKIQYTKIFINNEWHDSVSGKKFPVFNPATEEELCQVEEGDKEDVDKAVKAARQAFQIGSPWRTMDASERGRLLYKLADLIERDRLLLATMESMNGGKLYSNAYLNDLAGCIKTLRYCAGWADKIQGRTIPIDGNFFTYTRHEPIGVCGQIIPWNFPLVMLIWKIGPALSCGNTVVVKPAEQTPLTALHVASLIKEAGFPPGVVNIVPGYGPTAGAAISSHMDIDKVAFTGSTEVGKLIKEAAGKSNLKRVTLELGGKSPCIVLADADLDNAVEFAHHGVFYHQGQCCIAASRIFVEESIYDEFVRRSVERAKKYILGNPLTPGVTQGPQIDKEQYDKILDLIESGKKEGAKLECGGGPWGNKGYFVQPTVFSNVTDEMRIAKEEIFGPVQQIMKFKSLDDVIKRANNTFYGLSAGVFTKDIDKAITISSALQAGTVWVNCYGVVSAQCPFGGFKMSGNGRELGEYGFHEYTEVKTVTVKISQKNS

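For activity, negative = inhibition in this document: plate controls were no enzyme wells and a reference inhibitor.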
Potency is read from the fitted curve at half-maximal effect; tags tell the direction and shape of the fitted curve.

Row | SMILES | Potency | activity, negative = inhibition
1 | CC(OC(=O)c1cc(S(=O)(=O)N(C)c2ccccc2)ccc1Cl)C(=O)Nc1ccc2c(c1)OCCO2 (stereo not given) | inactive | 
2 | O=C(O)c1ccc(C(=O)c2ccc3c(c2)C(=O)N(Cc2ccco2)C3=O)cc1 | active: 11.2 µM | 
3 | CCOC(=O)c1ccc(N2C(=O)CC(N3CCN(C(=O)c4ccccc4)CC3)C2=O)cc1 (stereo not given) | active: 3.55 µM | 
4 | O=C1/C(=C\c2ccco2)SC(=S)N1c1ccccc1 | active: 8.91 µM | 
5 | CSc1ccccc1C(=O)NCc1ccccc1C | inactive | 
6 | COc1ccc(C(=O)/C(=C\c2sccc2C)c2nc3ccccc3o2)cc1 | inconclusive [inhibitor, single point] | 
7 | O=C(COc1ccc(Cl)cc1Cl)N1CCN(c2ccccn2)CC1 | inconclusive [inhibitor, single point] | 
8 | Cn1c(SCc2cc([N+](=O)[O-])cc3c2OCOC3)nnc1-c1ccccn1 | inactive | 
9 | CC(OC(=O)C1=Cc2ccccc2OC1)C(=O)NCc1ccco1 (stereo not given) | inconclusive [inhibitor, single point] | 
10 | CCOC(=O)C(Cc1ccccc1)NC(=O)CCc1c(C)nc2ncnn2c1C (stereo not given) | inconclusive [inhibitor, single point] | 
11 | CCOc1cc(CNc2ccc(N3CCCC3)cc2)cc(Cl)c1OC | active: 31.6 µM | 
12 | CCc1ccc(N(C(=O)c2csnn2)C(C(=O)NCc2ccccc2)c2ccco2)cc1 (stereo not given) | active: 7.94 µM | 
13 | CCOC(=O)CNC(=O)CSc1nc(N)cc(N)n1 | inactive | 
14 | O=c1ccnc(Sc2ncccc2[N+](=O)[O-])[nH]1 | inconclusive [inhibitor, single point] | 
15 | CCc1cc(=S)n2c([nH]c3ccccc32)c1C#N | inconclusive [inhibitor, partial curve] | 
16 | Cc1ccc(NS(=O)(=O)c2cccc(C(=O)O)c2)cc1S(=O)(=O)N1CCOCC1 | inconclusive [inhibitor, single point] | 
17 | Cn1c(=O)c(-c2ccc(Cl)cc2)nc2cnc(N3CCOCC3)nc21 | inconclusive [inhibitor, single point] | 
18 | CCOC(=O)/C(C#N)=C/c1cccn1-c1ccc(Cl)cc1 | inconclusive [inhibitor, partial curve] | 
19 | O=C(Nc1cccc(Cl)c1Cl)c1snnc1-c1ccccc1 | inconclusive [inhibitor, single point] | 
20 | CS(=O)(=O)c1ccc(C(=O)OCC(=O)NC23CC4CC(CC(C4)C2)C3)cc1[N+](=O)[O-] | inactive | 
21 | N#Cc1sc(C(N)=O)c(-c2ccccc2)c1-c1ccccc1 | inconclusive [inhibitor, single point] | 
22 | CCCCCCn1c(SCCC)nc2c1c(=O)[nH]c(=O)n2C | inconclusive [inhibitor, single point] | 
23 | COc1ccc(C(NC(=O)C(C)C)c2c(O)ccc3ccccc23)cc1 (stereo not given) | inconclusive [inhibitor, single point] | 
24 | Cc1ccc(C(C[N+](=O)[O-])c2c(-c3ccccc3O)[nH][nH]c2=O)cc1 (stereo not given) | active: 20 µM | 
25 | CSc1nc2cc(C)nn2c(-c2ccc(C(C)(C)C)cc2)c1C#N | inconclusive [inhibitor, full curve, poor fit] | 

Row | SMILES | Potency | activity, negative = inhibition
26 | COCCNC(=O)C(C)OC(=O)C1=Cc2ccccc2OC1 (stereo not given) | inactive | 
27 | CC(C)Oc1ncnc2c1[nH]c1ccccc12 | inconclusive [inhibitor, partial curve] | 
28 | N#Cc1cc(C(=O)c2ccccc2O)cn(-c2ccc(Cl)cc2)c1=O | inconclusive [inhibitor, partial curve, poor fit] | 
29 | Cc1ccc(N2C(=O)CN(Cc3cccs3)C2=S)cc1C | inactive | 
30 | COCCn1c(=O)c(-c2ccc(F)cc2)nc2cnc(N3CCOCC3)nc21 | inconclusive [inhibitor, single point] | 
31 | O=C(CSc1nc2[nH]ncc2c(=O)n1-c1ccccc1)NCc1cccs1 | inconclusive [inhibitor, single point] | 
32 | CCOC(=O)c1cnc(SCC(=O)c2ccc(C)cc2)nc1N | inactive | 
33 | CCCCNC(=O)C1CCC(CNS(=O)(=O)c2ccc(C)cc2)CC1 (stereo not given) | active: 10 µM | 
34 | CCCCCC1CCC(c2nnc(SCC(C)=O)o2)CC1 (stereo not given) | inactive | 
35 | Cc1cc(NC(=O)CSc2cn(CCNC(=O)c3ccccc3)c3ccccc23)no1 | inconclusive [inhibitor, partial curve] | 
36 | C1=C(N2CCOCC2)/C(=C/c2nc3ccccc3[nH]2)CC1 | inconclusive [inhibitor, partial curve] | 
37 | CC1CCN(C(=O)CCc2nc3cc(S(=O)(=O)N(C)C)ccc3n2C)CC1 | active: 11.2 µM | 
38 | Cc1nn2c(CN(C(=O)CN3CCOCC3)c3ccccc3)nnc2c2ccccc12 | active: 17.8 µM | 
39 | Cc1ccc2c(c1)N(CCC(=O)NCc1cccnc1)C(=O)CO2 | inactive | 
40 | CN(C)c1nc(N2CCN(c3ccccc3)CC2)c(C#N)c(=O)o1 | inconclusive [inhibitor, single point] | 
41 | CSCCC(NS(=O)(=O)c1ccc(Br)cc1)C(=O)OCC(=O)NC1CC1 (stereo not given) | inconclusive [inhibitor, single point] | 
42 | CC(C)(C)NC(=O)COC(=O)c1cc(S(=O)(=O)N2CCCCC2)ccc1N1CCOCC1 | inactive | 
43 | COc1ccc(NC(=S)NC(NC(=O)c2cccc(C)c2)C(Cl)(Cl)Cl)c([N+](=O)[O-])c1 (stereo not given) | inconclusive [inhibitor, single point] | 
44 | CCSc1nnc(NC(=O)CSc2nccn2-c2cccc(C)c2C)s1 | inconclusive [inhibitor, single point] | 
45 | O=C(CN1CCN(C(=O)c2ccco2)CC1)N1CCc2[nH]c3ccccc3c2C1 | active: 10 µM | 
46 | C=CC[C@@H]1C=C[C@H](O/N=C(\C)CCN2CCc3nc(CC)c(CC)cc3C2)[C@H](CO)O1 |  | inactive: 9.9% [at 13.5 µM]
47 | CCc1nnc(NC(=O)c2sc3nc4c(cc3c2N)CCCCCC4)s1 | inactive | 
48 | O=C(c1ccc(S(=O)(=O)N2CCCCC2)cc1)N1CCN(c2ccccc2)CC1 | inactive | 
49 | Cc1ccc(NC(=S)NNc2ccc([N+](=O)[O-])cc2S(=O)(=O)Nc2ccccc2C(=O)O)cc1C | inconclusive [inhibitor, full curve, poor fit] | 
50 | O=c1[nH]nc(SCCS(=O)(=O)c2ccc(F)cc2)n1-c1ccccc1 | active: 2.82 µM | 

Row | SMILES | Potency | activity, negative = inhibition
51 | Cc1ccc2nc(C3CCN(S(=O)(=O)c4ccc5ccccc5c4)CC3)[nH]c2c1 | inconclusive [inhibitor, single point] | 
52 | CCOc1ccc(NC(=O)C2CCC(N3C(=O)C4CC=CCC4C3=O)CC2)cc1 (stereo not given) | active: 3.98 µM | 
53 | CC(C)C(=O)N1CCN(c2ccccc2NC(=O)COc2ccccc2)CC1 | inconclusive [inhibitor, partial curve] | 
54 | O=C(NCc1ccncc1)C(=O)NCC1OCCCN1S(=O)(=O)c1ccccc1 (stereo not given) | inconclusive [inhibitor, single point] | 
55 | COc1ccccc1-c1nnc2sc(-c3ccc(N(C)C)cc3)nn12 | inconclusive [inhibitor, single point] | 
56 | O=C(O)COc1ccc2nsnc2c1Cl | inconclusive [inhibitor, partial curve] | 
57 | CC(C)CN1CCN(Cc2ccc3ncccc3c2)CC1CCO (stereo not given) | inactive | 
58 | Cc1c(C(=O)OC(C)C)sc2nc[nH]c(=O)c12 | inconclusive [inhibitor, single point] | 
59 | CC(=O)Nc1ccc(N=NN2CCOCC2)cc1 | inactive | 
60 | CCCOC(=O)C1C2C=CC(C3CC23)C1C(=O)OCC(=O)c1ccccc1 (stereo not given) | inconclusive [inhibitor, single point] | 
61 | C[N+](C)(C)CCCSc1nc2ccccc2[nH]1 |  | inactive: 4.72% [at 13.5 µM]
62 | COc1ccc(NC(=O)C(OC)c2ccccc2)cc1Cl (stereo not given) | active: 12.6 µM | 
63 | Cc1cccc(NC(=S)NCCc2ccc(S(N)(=O)=O)cc2)c1C | inactive | 
64 | O=C(NCc1ccco1)c1ccc(N2CCCC2=O)cc1 | inactive | 
65 | CN(Cc1ccccc1)Cc1nc2c(c(=O)n(C)c(=O)n2C)n1Cc1ccc(Cl)cc1 | inconclusive [inhibitor, single point] | 
66 | C/C(=N/NC(N)=S)c1cc2ccc(O)cc2oc1=O | inconclusive [inhibitor, partial curve] | 
67 | Cc1sc2ncnc(SCC(=O)Nc3nc(-c4ccc(F)c(F)c4)cs3)c2c1C | inactive | 
68 | O=C(c1cnccn1)N1CCC2(CC1)CCN(c1ccncc1)CC2 | inactive | 
69 | COc1ccc(/C=N/n2c(=O)[nH]c3c([nH]c4ccc(F)cc43)c2=O)cc1CN1CCCCC1 | inactive | 
70 | CCCCCCOc1ccc(N2C(=O)CC(N3CCN(CCN=CC4=C(O)CC(C)(C)CC4=O)CC3)C2=O)cc1 (stereo not given) | inconclusive [inhibitor, single point] | 
71 | Cc1csc(SCC(=O)Nc2nc3ccccc3s2)n1 | inconclusive [inhibitor, single point] | 
72 | Cc1ccc(-c2n[nH]c(=S)n2C)cc1Cl | inactive | 
73 | O=C(Nc1ccc2c(c1)C(=O)N(CC1CCCO1)C2=O)c1cccc(Br)c1 (stereo not given) | inconclusive [inhibitor, partial curve] | 
74 | O=C(N/N=C/c1ccc(-c2cccc([N+](=O)[O-])c2)o1)c1cccs1 | inactive | 
75 | CCn1c(SCC(=O)Nc2nc(C)c(C)s2)nc2cccnc21 | inconclusive [inhibitor, single point] | 
